Source: patent publication US20210002342A1

Biological target: T1, BMP7 (human), P18075
T1 chain: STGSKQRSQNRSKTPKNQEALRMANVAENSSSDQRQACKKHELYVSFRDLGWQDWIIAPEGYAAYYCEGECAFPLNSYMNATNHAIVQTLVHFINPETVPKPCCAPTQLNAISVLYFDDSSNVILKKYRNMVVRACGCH
Assay: Biacore SPR, BMPRII-Fc captured by anti-Fc antibody, ligand injected; transient interaction; same Biacore run; KD given without ka and kd because the interaction was transient
Details: remark: other sources report otherwise

- Kd: 38 nM
B1: homodimeric BMPRII-Fc fusion protein (extracellular domain of human BMPRII fused to a human immunoglobulin G1 Fc domain) (Fc fusion)
chain: SQNQERLCAFKDPYQQDLGIGESRISHENGTILCSKGSTCYGLWEKSKGDINLVKQGCWSHIGDPQECHYEECVVTTTPPSIQNGTYRFCCCSTDLCNVNFTENFPPPDTTPLSPPHSFNRDETG[letters of human IgG1 Fc and a few adjoining residues not shown]
